# Results published in PubChem BioAssay (Tox21).
# Where “and” joins values, the source holds several entries; their conditions need not be identical. Identical values can stand only once. Inconclusive means that the source gave no clear call. Such entries were picked first, then a sample of the others. Potencies beside an inconclusive call are fits to weak or partial responses and may not hold up. A structure can be active in one record and inactive in another. Calls of active or inactive are those of the source. Unless noted, the call rests on the fitted dose curve; in most records, active means well fitted cell-killing curve with a large enough effect in the repeat runs (not every such curve was filed as active); inconclusive means weak or mixed curves, or effect the other way; inactive means no such curve, though single readings can be large or run the other way.
# Legend:
# [1] = target: Nuclear receptor subfamily 1 group I member 3 (Homo sapiens) (UniProt Q14994); experiment: qHTS assay to identify small molecule agonists of the constitutive androstane receptor (CAR) signaling pathway (AID 1224839; active means well fitted curve in the direction sought with a large enough effect in the repeat runs; inconclusive means weak or mixed curves; inactive means no such curve, though single readings can be large; an effect the other way counts as inactive or inconclusive; further: nearly all actives have a fitted effect of over 15% in size;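 on activation: HepG2 cells stably carrying human CAR and a CYP2B6 luciferase reporter; on the % scale 0 is the no-effect control and ±100 the full control effect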); details: HepG2 hCAR CYP2B6-luciferase, agonist mode, 24 h; series mostly up to 92.4 µM
# Outline: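 Cells were plated and incubated 4 hrs, then dosed with compounds at 15 concentrations. PK11195 was added to 0.75 uM final. After 24 hrs at 37 C, luciferase luminescence was measured.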
# [2] = qHTS assay to identify small molecule agonists of H2AX (AID 1224845; active means well fitted activation curve with a large enough effect in the signal ratio in the repeat runs, not every such curve was filed as active; inconclusive means weak or mixed curves; the % refers to the signal ratio; on activation (H2AX phosphorylation): on the % scale 0 is the no-effect control and ±100 the full control effect); details: CHO-K1 phospho-H2AX Ser139 HTRF, 3 h; activation (H2AX phosphorylation): at 154 µM (top of the series) unless noted
# Outline: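 Wild-type CHO-K1 cells plated overnight, then exposed 3 hr at 37C to compounds at 15 concentrations (0.76% DMSO). Lysed, then HTRF anti-pH2AX(S139)-cryptate/anti-H2AX-d2 detection after 24 hr at room temperature; emissions 665 and 620 nm.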
# [3] = qHTS assay to identify small molecule agonists of the estrogen related receptor signaling pathway with the pleiotropic PPARgamma coactivator (PGC) from Tox21 10K library (AID 1224842; active means well fitted curve in the direction sought with a large enough effect in the repeat runs; inconclusive means weak or mixed curves; inactive means no such curve, though single readings can be large; an effect the other way counts as inactive or inconclusive; further: nearly all actives have a fitted effect of over 15% in size); details: PGC/ERR reporter cell line, luciferase ONE-Glo, 18 h; series mostly up to 92.4 µM
# Outline: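 PGC/ERR reporter cells (NTP line) were seeded 2,000 per well, rested 6 h at 37 C/5% CO2, then pin-dosed with compounds in DMSO for 18 h at 37 C; luciferase read by One-Glo luminescence after 30 min at room temperature.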
# [4] = qHTS assay to identify small molecule agonists of the hypoxia (HIF-1) signaling pathway - cell viability counter screen (AID 1224844; calls by dose curve; further: nearly all actives have a fitted effect of over 50% in size); details: HRE-bla ME-180 viability, CellTiter-Glo luminescence, 17 h; series mostly up to 76.8 µM
# Outline: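 Cytotoxicity was measured in parallel with the HRE-driven beta-lactamase readout: after 17 hrs of compound exposure at 37C, HRE-bla ME-180 cells received CellTiter-Glo and luminescence was recorded 30 min later.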
# [5] = qHTS assay to identify small molecule antagonists of the estrogen related receptor signaling pathway with the pleiotropic PPARgamma coactivator (PGC) from Tox21 10K library - cell viability counter screen (AID 1224840); details: PGC/ERR reporter cells viability, CellTiter-Fluor, 17.5 h; series mostly up to 92.4 µM; further: nearly all actives have a fitted effect of over 40% in size; on viability change, negative = cytotoxic: on the % scale 0 is the no-effect control and ±100 the full control effect
# Outline: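 Multiplexed viability counter screen in the PGC/ERR cell line: cells treated with DMSO-dissolved compounds for 17.5 hours at 37 C, then viability measured as CellTiter-Fluor fluorescence.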
# [6] = target: Thyrotropin receptor (Homo sapiens) (UniProt P16473); experiment: qHTS assay to identify small molecule agonists of the thyroid stimulating hormone receptor (TSHR) signaling pathway (AID 1224843; calls by dose curve; further: nearly all actives have a fitted effect of over 45% in size; on activation: on the % scale 0 is the no-effect control and ±100 the full control effect); details: TSHR-HEK293 cells, cAMP HTRF, agonist mode, 30 min; activation: at 92.4 µM (top of the series) unless noted
# Outline: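 Compounds are titrated over 15 concentrations, in triplicate, onto TSHR-HEK293 cells seeded at 800/well. Plates sit 30 min at room temperature before cAMP-d2 and anti-cAMP cryptate are added; signal is read after a further hour.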
# [7] = qHTS assay to identify small molecule antagonists of the estrogen related receptor signaling pathway with the pleiotropic PPARgamma coactivator (PGC) from Tox21 10K library (AID 1224841; call rule not given here; further: actives are mostly falling curves and most rising ones were filed inactive; nearly all actives have a fitted effect of over 50% in size); details: PGC/ERR reporter cell line, ONE-Glo luciferase, 18 h; series mostly up to 92.4 µM
# Outline: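 Steps: plate 2,000 PGC/ERR cells per well; incubate 6 h at 37 C with 5% CO2; transfer compounds from DMSO stocks by pin tool; incubate 18 h at 37 C; add One-Glo; measure luminescence 30 min later.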
# Potency means the concentration at half of the fitted maximal effect; tags describe the fitted curve by direction and shape or compound fluorescence and quenching.
# Sequence of UniProt P16473 (P16473 whole entry, looked up): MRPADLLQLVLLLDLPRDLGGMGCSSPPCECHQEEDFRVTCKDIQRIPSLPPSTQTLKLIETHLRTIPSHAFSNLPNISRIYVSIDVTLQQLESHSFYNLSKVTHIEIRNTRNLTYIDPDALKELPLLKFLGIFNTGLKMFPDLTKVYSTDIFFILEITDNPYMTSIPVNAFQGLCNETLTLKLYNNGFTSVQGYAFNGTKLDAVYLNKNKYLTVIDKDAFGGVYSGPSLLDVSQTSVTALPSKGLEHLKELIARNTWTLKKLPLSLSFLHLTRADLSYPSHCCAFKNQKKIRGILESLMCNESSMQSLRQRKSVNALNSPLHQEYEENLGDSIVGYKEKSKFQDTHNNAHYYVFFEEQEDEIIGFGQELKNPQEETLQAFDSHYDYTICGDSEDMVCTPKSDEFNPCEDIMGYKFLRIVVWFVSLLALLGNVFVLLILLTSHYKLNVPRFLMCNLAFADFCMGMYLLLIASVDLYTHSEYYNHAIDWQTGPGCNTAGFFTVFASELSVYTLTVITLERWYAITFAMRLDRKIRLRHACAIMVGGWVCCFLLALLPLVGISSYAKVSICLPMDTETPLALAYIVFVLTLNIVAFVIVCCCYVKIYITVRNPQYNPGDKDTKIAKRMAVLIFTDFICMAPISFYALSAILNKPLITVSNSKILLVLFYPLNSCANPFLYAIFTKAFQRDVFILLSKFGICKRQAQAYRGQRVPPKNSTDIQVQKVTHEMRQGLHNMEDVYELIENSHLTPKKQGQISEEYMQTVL
# Sequence of UniProt Q14994 (Q14994 whole entry, looked up): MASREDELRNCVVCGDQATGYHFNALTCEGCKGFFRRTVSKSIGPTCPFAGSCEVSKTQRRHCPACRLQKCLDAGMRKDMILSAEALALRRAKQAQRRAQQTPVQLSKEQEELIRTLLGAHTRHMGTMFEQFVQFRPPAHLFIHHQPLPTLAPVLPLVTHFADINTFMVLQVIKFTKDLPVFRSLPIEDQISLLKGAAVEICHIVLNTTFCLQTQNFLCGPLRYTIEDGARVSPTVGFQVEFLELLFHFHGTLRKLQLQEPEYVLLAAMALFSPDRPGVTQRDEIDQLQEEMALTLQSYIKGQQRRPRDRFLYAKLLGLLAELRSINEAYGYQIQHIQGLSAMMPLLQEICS
smiles,measurement,setting,value
Oc1cccc2ccccc12,Potency,[1],active: 62.8 µM and active: 61.1 µM
same,Potency,[2],active: 103 µM
CC(C)COC(=O)c1ccc(O)cc1,Potency,[1],"inconclusive: 54.4 µM [activator, partial curve]"
same,Potency,[2],"inconclusive: 113 µM [rising, partial curve, poor fit]"
C=C(C#N)C(=O)OCC,Potency,[1],inactive
same,Potency,[3],"inconclusive: 77 µM [activator, single point]"
CCCCCc1ccc(O)cc1,Potency,[1],active: 54.5 µM
same,Potency,[4],"inconclusive: 54.9 µM [cytotoxic, single point]"
same,Potency,[2],"inconclusive: 89.8 µM [activator, partial curve]"
Sc1nc(S)nc(S)n1,Potency,[5],inactive
COc1cc(S(=O)(=O)Nc2ccccc2)c(OC)cc1N,Potency,[1],"inconclusive: 61.1 µM [activator, partial curve]"
same,Potency,[2],"inconclusive: 89.8 µM [falling, single point]"
O=C(O)c1cc(-c2ccccc2)nc2ccccc12,Potency,[1],"inconclusive: 34.8 µM [activator, partial curve] and inconclusive: 21.1 µM [activator, partial curve]"
same,Potency,[3],"inconclusive: 61.9 µM [activator] and inconclusive: 26.6 µM [activator, partial curve, poor fit]"
same,Potency,[4],"inconclusive: 24.8 µM [cytotoxic, partial curve, poor fit] and inactive"
same,Potency,[2],"inconclusive: 114 µM [falling, partial curve, poor fit]"
COc1cc(N)c(Cl)cc1C(=O)NC1CCN(Cc2ccccc2)CC1,Potency,[1],active: 6.68 µM
same,Potency,[6],inactive
O=C(OCCOCCO)c1ccccc1Nc1cccc(C(F)(F)F)c1,Potency,[5],"inconclusive: 6.68 µM [cytotoxic, full curve, poor fit]"
C[C@@H]1[C@H](O)[C@@H](C)/C=C/C=C\C=C\C=C\C=C\C=C\C=C\[C@H](O[C@@H]2O[C@H](C)[C@@H](O)[C@H](N)[C@@H]2O)C[C@@H]2O[C@](O)(C[C@@H](O)C[C@@H](O)[C@H](O)CC[C@@H](O)C[C@@H](O)CC(=O)O[C@H]1C)C[C@H](O)[C@H]2C(=O)O (stereo in doubt),Potency,[1],"inconclusive: 48.6 µM [activator, partial curve, poor fit]"
same,Potency,[4],"inconclusive: 61.7 µM [cytotoxic, partial curve, poor fit]"
same,Potency,[2],"inconclusive: 113 µM [falling, partial curve, poor fit]"
Cc1cc2nc3ccc(=[N+](C)C)cc-3sc2cc1N,Potency,[1],active: 8.41 µM
same,Potency,[6],"inconclusive: 10.6 µM [falling, partial curve]"
same,Potency,[2],inconclusive: 11 µM [full curve]
Oc1ccc(OCc2ccccc2)cc1,Potency,[1],"inconclusive: 26.6 µM [activator, partial curve]"
same,Potency,[2],active: 22.1 µM
COc1ccc(C2C(=O)c3ccccc3C2=O)cc1,Potency,[1],"inconclusive: 37.6 µM [activator, partial curve]"
same,Potency,[3],active: 10.6 µM
CN(CCOc1ccc(CC2SC(=O)NC2=O)cc1)c1ccccn1 (stereo not given),Potency,[1],"inconclusive: 60.8 µM [activator, single point]"
same,Potency,[2],inactive
NC(=O)N(O)[C@@H]1COc2cc(OCc3ccccc3)ccc21,Potency,[5],"inconclusive: 27.3 µM [cytotoxic, full curve]"
CNCc1ccccc1,Potency,[5],inactive
CC(C)Cn1cnc2c(N)nc3ccccc3c21,"viability change, negative = cytotoxic",[5],inactive: 16.3% [at 19 µM]
O=[N+]([O-])c1cccc(C(F)(F)F)c1,Potency,[5],inactive
COc1cc([C@H]2Oc3cc([C@H]4Oc5cc(O)cc(O)c5C(=O)[C@@H]4O)ccc3O[C@@H]2CO)ccc1O,Potency,[5],active: 54.3 µM
CC(=O)C(=O)CC(C)C,Potency,[5],inactive
COc1cc(OC)c2ccc(=O)oc2c1,Potency,[1],"inconclusive: 54.5 µM [activator, partial curve]"
same,Potency,[2],"inconclusive: 113 µM [rising, partial curve]"
CCCCC(CC)COCCO (stereo not given),Potency,[5],inactive
COC(=O)Nc1nc2ccc(Sc3ccccc3)cc2[nH]1,Potency,[1],"active: 4.33 µM and inconclusive: 11.9 µM [activator, partial curve]"
same,Potency,[4],"inconclusive: 0.674 µM [rising, full curve]"
same,Potency,[2],"inconclusive: 56.6 µM [fluorescent, partial curve] and inconclusive: 49.2 µM [fluorescent, partial curve]"
NC(=O)c1ccccc1[N+](=O)[O-],Potency,[5],inactive
CCCCOC(=O)CCS,Potency,[5],inactive
COc1ccc(C)cc1,Potency,[5],inactive
CCOC(=O)c1ccc(NC(=O)CN2CCCCC2)cc1,Potency,[1],"inconclusive: 29.8 µM [activator, partial curve]"
same,Potency,[3],"inconclusive: 16.8 µM [activator, partial curve, poor fit]"
Cc1cccc2sc(N)nc12,Potency,[1],"inconclusive: 55.1 µM [activator, partial curve]"
same,activation,[6],inconclusive: -6.51%
Cc1ccc2nc(N)[nH]c(=O)c2c1Sc1ccncc1,Potency,[1],"inconclusive: 29.8 µM [activator, partial curve, poor fit]"
same,Potency,[7],inactive
same,Potency,[2],"inconclusive: 87.5 µM [fluorescent, partial curve, poor fit]"
O=C(O)CN1C(=O)c2cccc3cccc(c23)C1=O,Potency,[5],inactive
CC(C)(Cc1c[nH]c2ccccc12)NCC(O)COc1ccccc1C#N (stereo not given),Potency,[7],"inconclusive: 21.1 µM [falling, partial curve, poor fit]"
CC(C)C(=O)c1c(C(C)C)nn2ccccc12,Potency,[7],inactive
O=C(Cl)c1ccc(Cl)cc1Cl,Potency,[5],inactive
same,Potency,[2],active: 101 µM
CC/C=C\C/C=C\C/C=C\CCCCCCCC(=O)OC,Potency,[5],"inconclusive: 77 µM [cytotoxic, single point]"
same,Potency,[2],inconclusive: 113 µM [activator]
O=C(Nc1ccccc1)c1ccccc1O,Potency,[5],"inconclusive: 54.5 µM [cytotoxic, partial curve]"
same,Potency,[7],"inconclusive: 77 µM [falling, single point]"
Fc1ccc(C(c2ccc(F)cc2)N2CCN(C/C=C/c3ccccc3)CC2)cc1,Potency,[5],"inconclusive: 29.8 µM [cytotoxic, partial curve]"
same,Potency,[7],inconclusive: 26.6 µM
same,Potency,[4],"inconclusive: 26.8 µM [cytotoxic, single point]"
same,Potency,[2],"inconclusive: 61.9 µM [activator, single point]"
O=c1c(-c2ccccc2)c1-c1ccccc1,Potency,[5],"inconclusive: 8.41 µM [cytotoxic, full curve]"
same,Potency,[6],"inconclusive: 13.3 µM [activator, partial curve]"
same,Potency,[4],active: 13.4 µM
same,Potency,[2],inconclusive: 49.2 µM [activator]
CC1C2CC(CC2C2CCCC(O)C2)C1(C)C (stereo not given),Potency,[5],"inconclusive: 68.6 µM [cytotoxic, single point]"
same,activation,[6],inconclusive: 41.8%
same,Potency,[4],"inconclusive: 54.9 µM [cytotoxic, single point]"
same,activation (H2AX phosphorylation),[2],inconclusive: 9.78%
Cc1onc(-c2ccccc2)c1-c1ccc(S(N)(=O)=O)cc1,Potency,[7],active: 23.7 µM
CC[C@H](C)[C@H](N)C(=O)O,Potency,[7],inactive
CC(=O)CCc1ccccc1,Potency,[7],"inconclusive: 55.4 µM [falling, partial curve]"
CCCCCCCCCCCCCCN(CCO)CCO,Potency,[5],active: 54.5 µM
same,Potency,[7],"inconclusive: 38.6 µM [falling, partial curve, poor fit]"
same,Potency,[4],active: 49 µM
Cc1cccc(CN2CCN(C(c3ccccc3)c3ccc(Cl)cc3)CC2)c1 (stereo not given),Potency,[5],inactive
same,Potency,[7],"inconclusive: 26.6 µM [falling, partial curve]"
same,Potency,[6],"inconclusive: 29.8 µM [inhibitor, partial curve, poor fit]"
same,Potency,[4],"inconclusive: 0.0952 µM [cytotoxic, full curve, poor fit]"
OCC(CO)n1cnc(-c2ccc(F)cc2)c1-c1ccnc(Oc2ccccc2)n1,Potency,[7],"inconclusive: 17.2 µM [falling, full curve]"
c1ccc2ccccc2c1,Potency,[7],inactive
O=C1[C@H]2CCCC[C@H]2C(=O)N1CCCCN1CCN(c2nsc3ccccc23)CC1,Potency,[5],"inconclusive: 33.5 µM [cytotoxic, single point]"
same,Potency,[7],"inconclusive: 29.8 µM [falling, partial curve]"
same,Potency,[4],inactive
CCCCCCCC,Potency,[7],"inconclusive: 76.4 µM [falling, partial curve, poor fit]"
IC(I)I,Potency,[5],inactive
same,Potency,[4],inactive
COc1cc(C(=O)N2CCCCCCC2)cc(OC)c1OC,Potency,[7],inactive
O=C1CCCCCCCCCCCCCCCO1,Potency,[5],inactive
same,Potency,[2],"inconclusive: 50.5 µM [rising, single point]"
FC1(F)C(F)(F)C(F)(F)C2(F)C(F)(F)C(F)(F)C(F)(F)C(F)(F)C2(F)C1(F)F (stereo not given),Potency,[7],inactive
CC(C)c1c(C(=O)Nc2ccccc2)c(-c2ccccc2)c(-c2ccc(F)cc2)n1CC[C@@H](O)C[C@@H](O)CC(=O)O,Potency,[5],"inconclusive: 50.9 µM [cytotoxic, partial curve]"
same,Potency,[4],"inconclusive: 18.8 µM [cytotoxic, partial curve, poor fit] and inconclusive: 12.9 µM [cytotoxic, partial curve, poor fit]"
C#CC(C)(O)CC(C)C (stereo not given),Potency,[7],inactive
OC12N=C(c3ccccc3)SC1Cc1cc(Cl)ccc12 (stereo not given),Potency,[5],inconclusive: 68.6 µM [cytotoxic]
same,Potency,[7],inactive
same,Potency,[3],active: 8.63 µM
same,Potency,[4],inactive
COc1ccc(O)cc1,Potency,[5],inactive
same,Potency,[2],active: 86.5 µM and active: 89.8 µM and active: 49.2 µM
